# Measured values: patent US20250289897A1 (Eli Lilly, published 2025)
# B1: Recombinant LEPR extracellular domain fused to hIgG1-Fc (human LEPR ECD-TEV-Fc) (Fc fusion)
# chain: FNLSYPITPWRFKLSCMPPNSTYDYFLLPAGLSKNTSNSNGHYETAVEPKFNSSGTHFSNLSKTTFHCCFRSEQDRNCSLCADNIEGKTFVSTVNSLVFQQIDANWNIQCWLKGDLKLFICYVESLFKNLFRNYNYKVHLLYVLPEVLEDSPLVPQKGSFQMVHCNCSVHECCECLVPVPTAKLNDTLLMCLKITSGGVIFQSPLMSVQPINMVKPDPPLGLHMEITDDGNLKISWSSPPLVPFPLQYQVKYSENSTTVIREADKIVSATSLLVDSILPGSSYEVQVRGKRLDGPGIWSDWSTPRVFTTQDVIYFPPKILTSVGSNVSFHCIYKKENKIVPSKEIVWWMNLAEKIPQSQYDVVSDHVSKVTFFNLNETKPRGKFTYDAVYCCNEHECHHRYAELYVIDVNINISCETDGYLTKMTCRWSTSTIQSLAESTLQLRYHRSSLYCSDIPSIHPISEPKDCYLQSDGFYECIFQPIFLLSGYTMWIRINHSLGSLDSPPTCVLPDSVVKPLPPSSVKAEITINIGLLKISWEKPVFPENNLQFQIRYGLSGKEVQWKMYEVYDAKSKSVSLPVPDLCAVYAVQVRCKRLDGLGYWSNWSNPAYTVVMDIKVPMRGPEFWRIINGDTMKKEKNVTLLWKPLMKNDSLCSVQRYVINHHTSCNGTWSEDVGNHTKFTFLWTEQAHTVTVLAINSIGASVANFNLTFSWPMSKVNIVQSLSAYPLNSSCVIVSWILSPSDYKLMYFIIEWKNLNEDGEIKWLRISSSVKKYYIHDHFIPIEKYQFSLYPIFMEGVGKPKIINSFTQDDIEKHQSDENLYFQG[human IgG1 Fc with changes and a few adjoining residues not shown]
# notes: The entry holds ECD, TEV site, human IgG1 Fc and a His tag in one chain; also called LEPR-Fc; hLEPR-TEV-hIgG1Fc
# Molecular target: recombinant human leptin protein (R&D, #398-LP-05M) (human, UniProt P41159)
# Assay: competition ELISA, soluble LEPR-Fc titrated against plate-bound LEPR-Fc for 2 nM leptin
# Chain of UniProt P41159 (P41159 22-167 limits assumed): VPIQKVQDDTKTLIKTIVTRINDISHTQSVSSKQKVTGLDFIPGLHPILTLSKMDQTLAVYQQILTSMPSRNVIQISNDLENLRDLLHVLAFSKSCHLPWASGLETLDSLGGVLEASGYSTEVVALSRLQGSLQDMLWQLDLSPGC
binder,measurement,value
B1,IC50,2.58 µg/mL
